This is one part of the list.

The target in the assay is T1, OsWOX13 (Oryza sativa, UniProt Q5QMM3 1-267).
T1 sequence: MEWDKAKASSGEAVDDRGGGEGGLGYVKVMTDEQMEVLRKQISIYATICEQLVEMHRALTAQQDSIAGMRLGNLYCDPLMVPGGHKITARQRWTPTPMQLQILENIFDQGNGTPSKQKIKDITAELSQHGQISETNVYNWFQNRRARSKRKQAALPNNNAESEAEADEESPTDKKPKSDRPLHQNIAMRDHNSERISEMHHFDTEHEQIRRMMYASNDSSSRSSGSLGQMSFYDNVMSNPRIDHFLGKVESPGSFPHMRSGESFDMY
Description: protein-binding microarray (RPBM); PBS, 2% BSA, 51.3 ng/ul salmon testes DNA, 50 uM zinc acetate, 200 nM TF, 25 C, 1 h; high values mean tight binding. The note with it: protein: recombinant; tags: N-terminal polyhistidine and DsRed monomer fusion (pET32a); label: CyDye5-dUTP incorporated in the synthesized complementary strand; 3' TTTTT single-stranded linker to array surface; dsDNA, one strand shown. The procedure, abridged:
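Transcription factors were made in E. coli BL21-CodonPlus as N-terminal fusions to a polyhistidine tag and DsRed, then purified on Ni–NTA. After primer extension with Cy5-dUTP and blocking with 2% BSA, a custom Agilent array was exposed for 1 h at 25 °C to 200 nM protein in PBS, 2% BSA, salmon testes DNA and 50 µM zinc acetate. Washed arrays were scanned on an Axon 4000B, and the binding signal is per-feature fluorescence intensity in arbitrary units.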
Take “GGAACTTGATTTATCATTGAAGGTACTTATATTTACACTTCGGAGTCACCTAGTGCAG”: the binding signal was 16700 fluorescence intensity (a.u.).
For the sequence “ACCCATTCACCAATGATTGGATCACTCAAAGCCAAAGACCCGGAGTCACCTAGTGCAG”, the binding signal is 22100 fluorescence intensity (a.u.).
On to “ACAAATCTAATCAACAGCGACCACTGACTGAAGCCGCAGTCGGAGTCACCTAGTGCAG”, for which the binding signal is 17200 fluorescence intensity (a.u.).
The result for “GGAGAGGTGTTCCAATCACAGCCAATATATTTTGAAGAGTCGGAGTCACCTAGTGCAG” reads 7850 fluorescence intensity (a.u.).
The result for “GGTATGATAAACTTGACTAATTATACCATTGGATCATTGTCGGAGTCACCTAGTGCAG” reads 11000 fluorescence intensity (a.u.); that for “GAAAATTATCTGTATAATAGTTGCATGTTTATCTTCCCTACGGAGTCACCTAGTGCAG”, 14500 fluorescence intensity (a.u.).
Turning to “AATTAGTCGATTAGTTATTAGATTAGCAGTATGAAATTTTCGGAGTCACCTAGTGCAG”, the binding signal was 4080 fluorescence intensity (a.u.).
The value for “GCAATTAACTCTTAATCATATTTAGTTGAAATTAAACATACGGAGTCACCTAGTGCAG” was 6580 fluorescence intensity (a.u.); that for “ATGGATTGACCCACCCGCATCTTTAGATGCAGCAAACAAGCGGAGTCACCTAGTGCAG” was 3390 fluorescence intensity (a.u.); that for “CAAATAATTTATAGTGAATGTAATAGCTAATTCATACAATCGGAGTCACCTAGTGCAG” was 19300 fluorescence intensity (a.u.).
As to “ATAATTGATTCAACCTCGTTCTTAATTTGATACATCCTTCCGGAGTCACCTAGTGCAG”, the binding signal is 32300 fluorescence intensity (a.u.).
As for “TCTTGATTATTGTGTCCAAACCGAAGTTTACAGTCCGTTTCGGAGTCACCTAGTGCAG”, the binding signal is 36900 fluorescence intensity (a.u.).
As for “GGGATTGGCCAGTGAAATTAGTAACTTTTGCGGAGTCACACGGAGTCACCTAGTGCAG”, the binding signal is 9240 fluorescence intensity (a.u.).
For “CACAATTTAATATGGTTATAATTGTAATCTCACATATCCTCGGAGTCACCTAGTGCAG”, the binding signal was 7610 fluorescence intensity (a.u.).
Consider “GACGTTTTGACTGGCCAAATCTAGCTAGCCAGCCAACGATCGGAGTCACCTAGTGCAG”, for which the binding signal is 3980 fluorescence intensity (a.u.).
The result for “GGATTTAATTGCAAGGAGTACGAGTTCATATTTCCTTTGGCGGAGTCACCTAGTGCAG” reads 28200 fluorescence intensity (a.u.); that for “CCTGATAATTGTCACAATCTTGACGGGGTTTGGTCTCATCCGGAGTCACCTAGTGCAG”, 38000 fluorescence intensity (a.u.).
With “GTAAATTTACCATGTAATTCATTAGTGAAGACGTATCAGGCGGAGTCACCTAGTGCAG”, the binding signal is 23000 fluorescence intensity (a.u.).
The value for “TTTCAATCAGTTTACAGTACAAAATTAGCAATCTCGATGCCGGAGTCACCTAGTGCAG” was 20400 fluorescence intensity (a.u.); that for “TCCAAAGATTTGATGTGATGTTTTGGAAAAGAAATTTTGACGGAGTCACCTAGTGCAG” was 4330 fluorescence intensity (a.u.).
Take “AAATATCTAATTAGTTTTATTAAATCTAACAATGGATATACGGAGTCACCTAGTGCAG”: the binding signal was 4950 fluorescence intensity (a.u.).
Consider “TGGCGAATTAAGTCAATCTGATCATGTGCCCTGTTCCTCTCGGAGTCACCTAGTGCAG”, for which the binding signal is 5270 fluorescence intensity (a.u.).
Take “ATAATAAACAATCAAAGCCCCACGTTTTCCCACTCGCCCCCGGAGTCACCTAGTGCAG”: the binding signal was 9100 fluorescence intensity (a.u.).
The value for “GAGGACCTTGATTAGCTGTTGTAGACTTGTAGACGATCAGCGGAGTCACCTAGTGCAG” was 28300 fluorescence intensity (a.u.); that for “AAAGACAACACATATAATAGATTAGCTATAAGATTGGCTACGGAGTCACCTAGTGCAG” was 7490 fluorescence intensity (a.u.); that for “ACCATGGAAATTTGTTATGTTAATCGACCTAATTAACTGACGGAGTCACCTAGTGCAG” was 3780 fluorescence intensity (a.u.).
The result for “ATATAATAGTTTTATTTATAAATTATTTTCATTTGCTAAGCGGAGTCACCTAGTGCAG” reads 4130 fluorescence intensity (a.u.).
The value for “ATATGTTAATAAATTAGTATTTAGAACTTTCGTCGACTTACGGAGTCACCTAGTGCAG” was 4450 fluorescence intensity (a.u.); that for “ATAGGAATATCAATTAGGAATACGATGCGATACCTAACTACGGAGTCACCTAGTGCAG” was 4980 fluorescence intensity (a.u.); that for “CCCCATGATTTTGAAATTCAACAGACTAAATTTGTTGAAACGGAGTCACCTAGTGCAG” was 15000 fluorescence intensity (a.u.).
“GCCCAGATTGAACTTGAACGAAAACTCTGGAGGGAAAACTCGGAGTCACCTAGTGCAG”: the binding signal is 5640 fluorescence intensity (a.u.).
Regarding “TCCCCTGATTGCTATCATAAGTGCCATTTTAGGGTGTTGACGGAGTCACCTAGTGCAG”, the binding signal is 26100 fluorescence intensity (a.u.).
Consider “TGTTCATTAAACAGATTAATTTGGGCTATAAACACCGTAACGGAGTCACCTAGTGCAG”, for which the binding signal is 20300 fluorescence intensity (a.u.).
The value for “ATGATTAGGATGTCACATACACTCCATTTCTTAGAAATTTCGGAGTCACCTAGTGCAG” was 7600 fluorescence intensity (a.u.); that for “AAGTAGCTTTTACCAATTAACTGATTTTAACTTTGGGGACCGGAGTCACCTAGTGCAG” was 8800 fluorescence intensity (a.u.); that for “AATTAATAGGCGGGCTTGATTCGTTCGTTCGCTCGCGGGCCGGAGTCACCTAGTGCAG” was 4510 fluorescence intensity (a.u.).
For the sequence “CAATTAATTACCTGTTCACCTAGGAAGGACGTTGATCCCTCGGAGTCACCTAGTGCAG”, the binding signal was 28600 fluorescence intensity (a.u.).
As to “GCGACTAACTGTACATAGACATGGAAAAGGATAACATTACCGGAGTCACCTAGTGCAG”, the binding signal is 3320 fluorescence intensity (a.u.).
The result for “TTACCAAATTAGTTTAATTAAATAAATAATTAAATATATTCGGAGTCACCTAGTGCAG” reads 11100 fluorescence intensity (a.u.); that for “TTTAATTGTGACGAACACAACGGTGTAATCAGATTGTAGACGGAGTCACCTAGTGCAG”, 25400 fluorescence intensity (a.u.).
The result for “TGTAAACAGACAGAGCGAAGCAATCATCCAACCATTCCATCGGAGTCACCTAGTGCAG” reads 8500 fluorescence intensity (a.u.); that for “TGATCTTGATTTATAACCTGTCCGTTCTTGCTGTTGAGTGCGGAGTCACCTAGTGCAG”, 24600 fluorescence intensity (a.u.).

The values above are taken from article PMC7819943, “Rice protein-binding microarrays: a tool to detect cis-acting elements near promoter regions in rice”.
